± gives the uncertainty stated by the source. Over roughly 9,900 compounds, “viability index relative to DMSO control” has its median near 1; the lowest 2% begin near 0.85. The list shows a part of the results.
Test system: Plasmodium falciparum NF54 stage V gametocytes
Assay: viability index relative to DMSO control (fraction); higher = less gametocyte killing
Conditions: 2.5 µM, incubation time: 72 h
Summary of the method: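 Gametocytes (P. falciparum NF54, stage V) were treated with compound at 2.5 µM for 72 hr at 37°C in low oxygen, in serum-free medium at 0.75% gametocytemia and 1.25% hematocrit. Counts of 20–70 µm2 red particles, taken from one field per well after MitoTracker Red CMXRos with saponin, were divided by the plate mean of solvent-only wells. This ratio is the viability index.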

[1] = library set: Broad Institute DOS

Row | Compound | viability index [1] | viability index (library set: Broad Institute Blood Stage)
1 | C[C@@H](NC(=O)C[C@H]1C[C@@H]2c3cc(NS(=O)(=O)c4ccc(F)cc4)ccc3O[C@@H]2[C@@H](CO)O1)c1ccccc1 | 1.03 ± 0.043 | –
2 | COc1ccc(-c2ccc3n(c2=O)C[C@H]2[C@H](CO)[C@@H](C(=O)N4CCOCC4)N[C@@H]32)cc1 | 0.98 ± 0.074 | –
3 | CCS(=O)(=O)N[C@H]1CC[C@H](CC(=O)NCc2ccc(Cl)cc2)O[C@H]1CO | 1.02 ± 0.032 | –
4 | COc1ccc2c3c([nH]c2c1)[C@@H](CO)N(C[C@]31CN(C1)S(=O)(=O)c1cccs1)C(C)=O | 1.092 ± 0.0038 | –
5 | CC(C)C#Cc1ccc([C@@H]2[C@@H](CO)N3C(=O)CN(C(=O)Cc4ccccc4)C[C@@H]23)cc1 | 1.07 ± 0.047 | –
6 | Cc1noc(C)c1S(=O)(=O)N(C)C[C@@H]1Oc2c(NS(=O)(=O)c3cn(C)cn3)cccc2C(=O)N([C@@H](C)CO)C[C@H]1C | 1.01 ± 0.038 | –
7 | C[C@H]1CC(=O)N[C@@H](c2ccccc2)C/C=C\C[C@H](c2ccc3c(c2)OCO3)NC1=O | 1.01 ± 0.037 | –
8 | O=C(NCC[C@@H]1CC[C@H](NC(=O)c2ccncc2)[C@@H](CO)O1)Nc1ccc(Cl)cc1 | 1.09 ± 0.037 | –
9 | COc1ccc2c3c([C@@H](CO)N(C[C@]33CCN(CC4CCOCC4)CC3)C(=O)NC(C)C)n(C)c2c1 | 0.97 ± 0.013 | –
10 | COc1ccc(C#Cc2ccc([C@@H]3[C@@H](CO)N4CCCCN(C(=O)Nc5cccc(F)c5)C[C@H]34)cc2)cc1 | – | 0.654 ± 0.049
11 | CC(C)(O)C#Cc1ccc([C@H]2[C@@H](CO)N3CCCCN(S(C)(=O)=O)C[C@@H]23)cc1 | 1.03 ± 0.038 | –
12 | CN1CCN(C(=O)C[C@@H]2CC[C@@H]3[C@H](COC[C@@H](O)CN3CC3CCCCC3)O2)CC1 | 1.05 ± 0.041 | –
13 | N#C[C@H]1[C@H](c2ccc(-c3cccc(F)c3)cc2)[C@H](CO)N1C(=O)CN1CCOCC1 | 1.09 ± 0.024 | –
14 | C[C@@H]1CCCCO[C@@H](CN(C)S(=O)(=O)c2ccc(F)cc2)[C@H](C)CN([C@H](C)CO)C(=O)c2cc(N(C)C)ccc2O1 | 1.06 ± 0.075 | –
15 | N#C[C@H]1[C@@H](c2ccc(C#CC3(O)CCCC3)cc2)[C@@H](CO)N1C(=O)C1CCCCC1 | 1.08 ± 0.021 | –
16 | CN1C(=O)c2cc(NC(=O)c3cscn3)ccc2OC[C@@H]2O[C@@H](CC(=O)N3CCOCC3)CC[C@H]21 | 1.08 ± 0.077 | –
17 | CCNC[C@H]1[C@@H](c2ccccc2)[C@@H](CO)N1C(=O)Cc1ccccn1 | 0.97 ± 0.032 | –
18 | C[C@@H]1CN([C@@H](C)CO)C(=O)c2cc(NC(=O)CCC(F)(F)F)ccc2O[C@@H](C)CCCCO[C@H]1CN(C)C(=O)c1ccncc1 | 1.17 ± 0.031 | –
19 | CCCNC(=O)N1C[C@]2(CCN(Cc3nccs3)CC2)c2c([nH]c3cc(OC)ccc23)[C@@H]1CO | 1.09 ± 0.019 | –
20 | COc1ccc2c3c([nH]c2c1)[C@H](CO)N(Cc1ccc(F)cc1)C[C@]31CN(C)C1 | 0.999 ± 0.012 | –

— the supplement of paper PMC4723716
